Entries after “also recorded” stand apart in the source; their conditions may differ.
T1: RatDLL3/CHO-s (Rattus norvegicus, UniProt O88671)
T1 construct: Rat DLL3 full-length protein; expressed in transfected cells; host or cells: CHO-s (Invitrogen, R80007), lentiviral transduction
T1 sequence (O88671 33-589): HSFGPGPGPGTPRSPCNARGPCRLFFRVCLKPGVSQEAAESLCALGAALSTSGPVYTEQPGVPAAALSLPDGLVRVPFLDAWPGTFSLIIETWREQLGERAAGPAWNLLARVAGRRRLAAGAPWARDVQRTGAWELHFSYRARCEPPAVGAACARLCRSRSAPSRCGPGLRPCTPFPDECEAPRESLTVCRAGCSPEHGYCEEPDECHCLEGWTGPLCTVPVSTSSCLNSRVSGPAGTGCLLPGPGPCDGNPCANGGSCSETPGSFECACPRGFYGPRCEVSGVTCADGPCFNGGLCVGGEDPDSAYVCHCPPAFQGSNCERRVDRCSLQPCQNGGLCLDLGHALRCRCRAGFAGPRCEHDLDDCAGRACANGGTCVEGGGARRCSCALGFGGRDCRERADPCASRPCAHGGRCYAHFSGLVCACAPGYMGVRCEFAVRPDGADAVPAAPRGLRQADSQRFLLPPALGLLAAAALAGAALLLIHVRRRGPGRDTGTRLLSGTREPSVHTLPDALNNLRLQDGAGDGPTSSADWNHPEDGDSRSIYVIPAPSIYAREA

T2: human DLL1/CHO-s cells (Homo sapiens, UniProt O00548)
T2 construct: Human DLL1 full-length protein; expressed in transfected cells; host or cells: CHO-s (Invitrogen, R80007)
T2 sequence (O00548 18-723): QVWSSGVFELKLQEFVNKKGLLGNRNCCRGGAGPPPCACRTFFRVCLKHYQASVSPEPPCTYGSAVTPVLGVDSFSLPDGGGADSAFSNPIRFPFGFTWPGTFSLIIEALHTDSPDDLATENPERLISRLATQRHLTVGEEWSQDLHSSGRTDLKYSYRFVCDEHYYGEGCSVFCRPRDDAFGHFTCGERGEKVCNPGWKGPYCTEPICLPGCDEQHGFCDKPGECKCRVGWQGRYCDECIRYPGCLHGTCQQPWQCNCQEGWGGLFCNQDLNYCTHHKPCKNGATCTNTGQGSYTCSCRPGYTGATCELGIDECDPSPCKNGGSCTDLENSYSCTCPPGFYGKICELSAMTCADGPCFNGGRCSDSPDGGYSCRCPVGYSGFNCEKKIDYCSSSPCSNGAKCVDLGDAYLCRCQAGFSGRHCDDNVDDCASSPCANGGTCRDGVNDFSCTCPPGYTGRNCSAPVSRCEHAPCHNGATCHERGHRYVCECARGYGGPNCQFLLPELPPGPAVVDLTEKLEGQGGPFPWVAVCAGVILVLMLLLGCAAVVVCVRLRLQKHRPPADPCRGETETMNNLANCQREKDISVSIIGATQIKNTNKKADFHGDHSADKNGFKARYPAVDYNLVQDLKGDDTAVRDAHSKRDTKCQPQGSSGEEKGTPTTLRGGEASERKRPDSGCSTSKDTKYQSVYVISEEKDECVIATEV


Experiments:
[1] = biological target: T3, Biotinylated DLL3 antigen (SEQ ID NO: 9, hDLL3(ECD)-strep twin) (Homo sapiens, UniProt Q9NYJ7); assay: Protein-level ELISA binding assay; details: reading at 450 nm
T3 construct: made in house; host or cells: 293E cells (pTT5 vector)
T3 sequence (Q9NYJ7 with tags, fused parts or gaps): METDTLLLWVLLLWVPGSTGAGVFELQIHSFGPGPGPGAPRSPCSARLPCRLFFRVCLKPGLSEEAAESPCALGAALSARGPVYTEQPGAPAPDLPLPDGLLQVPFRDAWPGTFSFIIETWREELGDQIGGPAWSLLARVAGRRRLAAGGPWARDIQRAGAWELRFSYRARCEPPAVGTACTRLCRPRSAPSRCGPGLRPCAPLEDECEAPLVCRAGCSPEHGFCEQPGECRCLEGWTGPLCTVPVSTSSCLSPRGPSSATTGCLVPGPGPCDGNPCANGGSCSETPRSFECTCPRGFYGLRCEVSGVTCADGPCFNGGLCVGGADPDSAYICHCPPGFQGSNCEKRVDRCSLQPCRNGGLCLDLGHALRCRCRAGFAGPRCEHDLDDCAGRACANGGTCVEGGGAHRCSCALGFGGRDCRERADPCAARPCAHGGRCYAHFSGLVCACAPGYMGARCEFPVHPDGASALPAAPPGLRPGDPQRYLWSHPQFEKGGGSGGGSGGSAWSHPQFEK
Protocol: Streptavidin (abcam, ab136200, 1 μg/mL) was plated at 100 μL/well, and the plate was incubated overnight at 4° C. The plate was washed 3 times with 250 μL of PBST solution (PBS containing 0.1% Tween 20) per well. The plate was blocked with 250 μL of 5% milk per well at 37° C. for 2 h. The plate was washed 3 times with 250 μL of PBST solution per well. Biotinylated DLL3 antigen (1 μg/mL) (SEQ ID NO: 9) was added, and the plate was incubated at 37° C. for 1 h. The plate was washed 3 times with 250 μL of PBST solution per well. […] The plate was washed 6 times with 250 μL of PBST solution per well. […] The plate was washed 6 times with 250 μL of PBST solution per well. TMB (KPL, 5120-0077) substrate solution was added at 100 μL/well, and color development was allowed at room temperature for 5-10 min. 1 M H2SO4 was added at 100 μL/well to stop the color development, and microplate reader (Molecular Devices, VERSA max) readings at 450 nm were taken.

RatDLL3/CHO-s = biological target: T1, RatDLL3/CHO-s; assay: Cell-level FACS binding assay, RatDLL3/CHO-s cells
Protocol: Cells of the DLL3-expressing small cell lung cancer cell lines H1184 (ATCC, Cat. No. CRL-5858), DLL3/H82, cynoDLL3/CHO-s, and RatDLL3/CHO-s were suspended at 1×10^6/mL in FACS buffer (1% BSA+pH 7.4 PBS), and the cell suspensions were added to a 96-well round-bottom plate (Corning, 3795) at 100 μL/well. The plate was centrifuged at 300 g for 5 min, and the supernatant was removed. Different concentrations of test antibodies were added at 100 μL/well. The plate was incubated in the dark in a refrigerator at 4° C. for 1 h. After 3 washes by centrifugation at 300 g, working concentrations of APC anti-human IgG Fc (BioLegend, 410712) or PE F(ab′)2-goat anti-human IgG (invitrogen, H10104) were added. The plate was incubated in the dark in a refrigerator at 4° C. for 40 min. After 3 washes by centrifugation at 300 g, the geometric mean fluorescence intensity was measured on an Invitrogen flow cytometer, and the EC50 values of the antibodies in binding to DLL3-expressing cells were calculated. The results are shown in Table 11-1, Table 11-2, Table 11-3, and FIG. 1A to FIG. 1C.

human DLL1/CHO-s cells = biological target: T2, human DLL1/CHO-s cells; assay: DLL1 binding assay (FACS)
Protocol: Stably transfected human DLL1/CHO-s and human DLL4/CHO-s cells were suspended at 1×10^6/mL in FACS buffer (containing 1% BSA and pH 7.4 PBS), and the cell suspensions were added to a 96-well round-bottom plate (Corning, 3795) at 100 µL/well. The plate was centrifuged at 300 g for 5 min, and the supernatant was removed. Test antibodies were added at 100 μL/well, and the plate was incubated in the dark in a refrigerator at 4° C. for 1 h. After 3 washes by centrifugation at 300 g, working concentrations of PE F(ab′)2-goat anti-human IgG Fc secondary antibody (invitrogen, H10104) were added. The plate was incubated in the dark in a refrigerator at 4° C. for 40 min. After 3 washes by centrifugation at 300 g, the geometric mean fluorescence intensity was measured on an Invitrogen flow cytometer.

| Molecule | Emax (OD value) [1] | binding to cells expressing rat DLL3 (in words) (RatDLL3/CHO-s) | binding to human DLL1 (human DLL1/CHO-s cells) | Emax (RatDLL3/CHO-s) |
| --- | --- | --- | --- | --- |
| Hu100: humanized anti-DLL3 antibody, heavy chain SEQ ID NO: 60, light chain SEQ ID NO: 61 (hAb100VH1 + hAb100VL1) (antibody, Hu100) heavy: EVQLVESGGGLVKPGGSLRLSCAASGFTFSDSGMHWIRQAPGKGLEWVSYISSGSSTIHYADTVKGRFTISRDNAKNSLYLQMNSLRAEDTAVYYCASPLYYYGRSYNAVAYWGQGTTVTVSS[human IgG1 constant region not written out] light: DIQMTQSPSSLSASVGDRVTITCHASQNINVWLSWYQQKPGKVPKLLIYKASDLHTGVPSRFSGSGSGTDFTLTISSLQPEDVATYYCQQGQSYPLTFGGGTKVEIKRTVAAPSVFIFPPSDEQLKSGTASVVCLLNNFYPREAKVQWKVDNALQSGNSQESVTEQDSKDSTYSLSSTLTLSKADYEKHKVYACEVTHQGLSSPVTKSFNRGEC | 2.05 OD value | did not bind; also recorded: No binding | neither antibody Hu6 nor Hu100 bound |  |
| Hu6: humanized anti-DLL3 antibody, heavy chain SEQ ID NO: 58, light chain SEQ ID NO: 59 (hAb6VH12 + hAb6VL4) (antibody, Hu6) heavy: EVQLVQSGSELKKPGASVKVSCKASGYTFTDYYMNWVRQAPGQGLEWMGIINPYSGVTIYNHKFKGRFALSVDKSSNTAYLQISSLKAEDTAVYYCARQDSLLDYAMDYWGQGTTVTVSS[human IgG1 constant region not written out] light: DIQMTQSPSSLSASVGDRVTITCHASQGISGNMGWLQQKPGKAPKGLIYHGANLEDGVPSRFSGSGSGADYTLTISSLQPEDFADYYCVQYAQFPYTFGGGTKVEIKRTVAAPSVFIFPPSDEQLKSGTASVVCLLNNFYPREAKVQWKVDNALQSGNSQESVTEQDSKDSTYSLSSTLTLSKADYEKHKVYACEVTHQGLSSPVTKSFNRGEC | 2.13 OD value |  | neither antibody Hu6 nor Hu100 bound | 2112 |
